Source: the supplement of paper PMC12217912
This is one part of the list. Sequences were assembled here from the parent chain. Inactive controls read about 0.05.

B1: TEV protease; numbered along this chain (parent)
chain: MGESLFKGPRDYNPISSSICHLTNESDGHTTSLYGIGFGPFIITNKHLFRRNNGTLVVQSLHGVFKVKDTTTLQQHLVDGRDMIIIRMPKDFPPFPQKLKFREPQREERICLVTTNFQTKSMSSMVSDTSCTFPSGDGIFWKHWIQTKDGQCGSPLVSTRDGFIVGIHSASNFTNTNNYFTSVPKNFMELLTNQEAQQWVSGWRLNADSVLWGGHKVFMVKPEEPFQPVKEATQL

Variants of: B1
Assay: raw area under fraction-flipped curve 0-4 h after induction (AUC4h, not background-subtracted), DNA-recorder readout of cleavage of the substrate (dimensionless); higher = more cleavage of the substrate by the protease variant
Details: temperature: 34 °C; time window: 0-4 h after rhamnose induction
Protocol: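 In vivo DNA recorder in E. coli TOP10(DE3) ΔrhaA at 34 °C. Each TEVp single-site mutant (parent TEVp 0) is paired with a single-site variant of the 7-mer TEVs (canonical ENLYFQ|S). The substrate sits between flexible linkers in a Bxb1-sfGFP-TEVs-SsrA fusion, so cleavage stabilises Bxb1 and speeds flipping of a recombination array, read by NGS. The value is the raw area under the fraction-flipped curve over 0-4 h after rhamnose induction (AUC4h), with ≥20 reads per time point. It is not background-subtracted; inactive controls average about 0.047.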
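Further: Bxb1 expression induced with 0.2% (w/v) L-rhamnose at OD600 near 0.5, cultures sampled hourly, flipped fraction per protease–substrate barcode pair counted by paired-end Illumina sequencing.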

Variant	area with substrate ENLYAQS	area with substrate ENLYCQS	area with substrate ENLYDQS	area with substrate ENLYEQS	area with substrate ENLYGQS	area with substrate ENLYHQS	area with substrate ENLYIQS	area with substrate ENLYKQS	area with substrate ENLYMQS	area with substrate ENLYPQS	area with substrate ENLYQQS	area with substrate ENLYRQS	area with substrate ENLYSQS	area with substrate ENLYVQS	area with substrate ENLYWQS	area with substrate ENLYYQS	area with substrate ENLYNQS	area with substrate ENLYTQS	area with substrate ENLYLQS
G162C	0.0743	0.088	0.06	0.0681	0.0622	0.067	0.0919	0.0283	0.08	0.0725	0.0616	0.067	0.0691	0.136	0.0619	0.0717			
T192E	0.072			0.0671	0.05	0.0695	0.147	0.0742		0.0968	0.021	0.0581	0.078	0.0833	0.0832	0.0503	0.0651		
I167K	0.0493	0.0606	0.0501	0.0586	0.0572	0.0589	0.0455	0.0249	0.0447	0.0581	0.0577	0.0583	0.0648	0.0604	0.0646	0.0466	0.0551	0.0524	
P184W	0.0611	0.0721	0.0574	0.0716	0.0602	0.0804		0.0687	0.0645	0.048			0.064	0.0595		0.0579	0.0618		0.0604
P184H	0.0042		0.0617	0.0672	0.0556	0.0598	0.0873	0.0614	0.07	0.0697		0.0708	0.0612	0.0933			0.0436	0.0545	
P184C	0.0567	0.0981		0.0653	0.0674		0.105	0.0532	0.075	0.0519	0.0732	0.067			0.0834		0.0721	0.0792	
P184L	0.0624	0.0486	0.0561	0.0563	0.0524	0.0845	0.0579	0.0628	0.0558	0.0571	0.0574		0.0585		0.08	0.0444	0.0575		0.0462
H168G	0.064		0.0757			0.0671			0.0642	0.0593			0.0569				0.0508	0.0865	0.055
H168Y	0.0669	0.0651	0.0469	0.0602	0.0562	0.0596	0.0462	0.0545	0.0608	0.0483	0.0699	0.0605	0.0572	0.0594			0.0621	0.0435	
H168I	0.0542	0.0466	0.061	0.0655	0.06	0.0733	0.0594	0.0369	0.0564	0.0576	0.0525	0.0555	0.0515	0.0637	0.0496		0.0549		0.117
H168D	0.0712	0.0093	0.0618	0.0559	0.0682	0.0709	0.0633	0.0615	0.0546	0.0603				0.0576	0.0479		0.0664		
H168Q	0.0629	0.0656	0.0569	0.0679		0.0574	0.0825	0.0621	0.0477	0.0571		0.0649				0.0648	0.0635		
N177E	0.0804	0.0863	0.0609	0.0571	0.0717	0.0651	0.0801	0.0659	0.0754	0.0699	0.0719	0.0634	0.07	0.105	0.0656	0.0487	0.0578		0.0763
V157F	0.0722	0.0538	0.0505	0.0515	0.0678	0.0585	0.0918	0.0141	0.0771			0.05	0.051	0.0875	0.0777		0.0534	0.0733	
V165E	0.05	0.0512	0.0591	0.0539	0.0518	0.0546	0.0536	0.055	0.0476	0.066		0.0491	0.0553	0.0488	0.0426	0.0542	0.0475	0.0542	
R160Y	0.0714		0.0617	0.0733	0.0655	0.0702	0.148	0.0648	0.0727	0.0726	0.0566	0.0488		0.151	0.0774	0.0556		0.0707	0.0923
R160D	0.0746		0.0508	0.0728	0.0729	0.0789	0.133	0.0802	0.0895	0.0691		0.06	0.0542	0.114	0.0807		0.069		
R160N	0.0435	0.111	0.0513	0.0711		0.0684	0.0895	0.0726	0.0826	0.0611		0.0641	0.0799		0.0919	0.0924	0.0696		
I164A	0.0537		0.0514	0.0683	0.0701	0.0541	0.0694	0.0496		0.0588		0.0547	0.039	0.0632	0.0594			0.0511	
T176D	0.0691		0.0672	0.0489	0.0704	0.0655		0.0589			0.0778			0.0818	0.0618		0.0605		
T176I	0.0479		0.0586	0.0613	0.0583	0.0793	0.0656	0.0609	0.0644	0.0655	0.0513	0.0651	0.0595	0.0717	0.0422		0.0572		0.0487
T176M	0.0736		0.0577	0.0655	0.043	0.0549	0.0887	0.0652	0.06	0.0695	0.0662	0.0712			0.063		0.0648		
T176C	0.0993		0.0604	0.0782	0.0546	0.055		0.0513			0.0694	0.0671	0.0628			0.0746	0.0676		0.0599
D161V	0.0546	0.0546	0.0514	0.0497	0.0572	0.0534	0.0461	0.0527	0.0475	0.0493	0.0691	0.0558		0.0586	0.0658	0.0624	0.0549	0.048	
